The values below come from PMC4336329 (PLoS ONE, 2015).

The structures appear in SMILES notation. About 14,000 (4.5%) of roughly 310,000 compounds showed an effect of 50% or more. Effects have a minus sign here. The list shows a part of the results.
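Further: peak tail current of the secondary pulse compared with the same well before compound.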

The target of the assay is human ether-à-go-go-related gene (hERG) potassium channel (human, UniProt Q12809). The assay is described as follows: primary screen, population patch clamp on CHO cells stably expressing hERG.
human ether-à-go-go-related gene (hERG) potassium channel, sequence (Q12809 whole entry, looked up): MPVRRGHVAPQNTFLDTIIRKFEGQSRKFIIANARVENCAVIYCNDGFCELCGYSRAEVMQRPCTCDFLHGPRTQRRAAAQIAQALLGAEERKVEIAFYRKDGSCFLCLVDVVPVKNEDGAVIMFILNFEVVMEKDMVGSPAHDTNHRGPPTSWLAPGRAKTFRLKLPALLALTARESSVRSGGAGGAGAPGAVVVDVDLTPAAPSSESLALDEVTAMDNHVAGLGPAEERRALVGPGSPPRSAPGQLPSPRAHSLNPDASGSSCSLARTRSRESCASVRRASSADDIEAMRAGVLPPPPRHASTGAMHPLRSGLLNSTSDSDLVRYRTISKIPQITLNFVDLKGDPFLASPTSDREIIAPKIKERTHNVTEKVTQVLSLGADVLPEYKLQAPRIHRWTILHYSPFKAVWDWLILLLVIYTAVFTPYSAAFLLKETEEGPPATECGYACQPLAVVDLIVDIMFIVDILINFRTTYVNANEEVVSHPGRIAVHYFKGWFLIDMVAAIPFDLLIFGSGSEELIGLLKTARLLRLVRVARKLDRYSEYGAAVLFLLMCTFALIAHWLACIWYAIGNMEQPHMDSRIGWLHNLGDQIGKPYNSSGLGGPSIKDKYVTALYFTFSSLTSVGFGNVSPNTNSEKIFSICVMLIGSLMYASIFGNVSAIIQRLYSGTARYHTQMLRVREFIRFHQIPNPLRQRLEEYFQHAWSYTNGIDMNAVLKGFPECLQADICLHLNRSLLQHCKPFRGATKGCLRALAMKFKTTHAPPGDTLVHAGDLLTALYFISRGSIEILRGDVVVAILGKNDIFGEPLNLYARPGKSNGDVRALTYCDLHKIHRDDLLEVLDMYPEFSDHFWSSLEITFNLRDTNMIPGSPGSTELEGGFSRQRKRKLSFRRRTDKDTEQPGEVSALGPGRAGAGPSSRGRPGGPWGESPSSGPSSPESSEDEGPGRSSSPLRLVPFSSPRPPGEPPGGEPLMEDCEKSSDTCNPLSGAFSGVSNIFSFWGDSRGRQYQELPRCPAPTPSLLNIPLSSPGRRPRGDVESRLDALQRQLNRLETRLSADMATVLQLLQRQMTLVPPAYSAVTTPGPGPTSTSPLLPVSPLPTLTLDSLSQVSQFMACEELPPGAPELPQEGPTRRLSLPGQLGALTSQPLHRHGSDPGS
`CC(C)(C)NC(=O)C(c1ccccc1F)N(Cc1ccco1)C(=O)c1csnn1` (centres unmarked): the “hERG current change (%, negative = inhibition) at 10uM” value is on record as 0.31%.

In the case of `CCOC(=O)N1CCN(C(=O)CSc2nnc(Cc3ccccc3)o2)CC1`, the “hERG current change (%, negative = inhibition) at 10uM” value was -5.08%.

Take `Cc1nnc(NC(=O)CSc2ncnc3scc(-c4ccccc4)c23)s1`: the “hERG current change (%, negative = inhibition) at 10uM” value stood at 23.9%.

As to `CC1=C(c2ccc(Cl)cc2)[N+](=O)C(C)(C)N1[O-]`, the “hERG current change (%, negative = inhibition) at 10uM” value stood at 10.9%.

Regarding `C/C(CC1(O)C(=O)N(Cc2ccccc2)c2ccccc21)=N\O` (centres unmarked), the “hERG current change (%, negative = inhibition) at 10uM” value was 8.18%.

For the compound `O=C(CCNS(=O)(=O)c1cccc2nsnc12)NCc1ccc(F)cc1`, the “hERG current change (%, negative = inhibition) at 10uM” value is reported as -7.32%.

As for `CC(=O)Nc1ccc(Nc2ccc3c4c(cc(=O)n3C)-c3ccccc3C(=O)c24)cc1`, the “hERG current change (%, negative = inhibition) at 10uM” value came out at 9.74%.

Regarding `O=c1c2ccccc2nc(CNCC2CCCO2)n1-c1ccc(F)cc1` (centres unmarked), the “hERG current change (%, negative = inhibition) at 10uM” value is 3.21%.

In the case of `Cn1c(SCC(=O)c2ccccc2)nnc1-c1ccccn1`, the “hERG current change (%, negative = inhibition) at 10uM” value is reported as -8.9%.

Regarding `CCn1c(=O)c2c3c(sc2n2c(=S)[nH]nc12)CCC3`, the “hERG current change (%, negative = inhibition) at 10uM” value stood at 25.6%.

With `Cc1nnc(NC(=O)c2ccc3c(c2)C(=O)N(CCC(C)C)C3=O)s1`, the “hERG current change (%, negative = inhibition) at 10uM” value is 0.0544%.

For the compound `CC(C)(C)NC(=O)CN1CCC(NC(=O)C23CC4CC(CC(C4)C2)C3)CC1`, the “hERG current change (%, negative = inhibition) at 10uM” value is given as 28.1%.

As to `Cc1cc(S(=O)(=O)Nc2ccc3ccccc3c2)c(C)s1`, the “hERG current change (%, negative = inhibition) at 10uM” value is -0.508%.

Take `CCC(C)c1ccc(N(C(=O)c2ccco2)C(C(=O)NC2CCCC2)c2cccnc2)cc1` (centres unmarked): the “hERG current change (%, negative = inhibition) at 10uM” value is on record as -15.4%.

With `O=C(CCn1nnc(-c2cccs2)n1)N1CCc2ccccc2C1`, the “hERG current change (%, negative = inhibition) at 10uM” value was -20.1%.

`Cn1cc(C(=O)N/N=C/C2=C(N3CCOCC3)C(=C\c3ccccc3)/CC2)ccc1=O`: the “hERG current change (%, negative = inhibition) at 10uM” value is reported as 0.839%.

Take `Cc1cc(C)n(-c2ccc3cccc(NS(C)(=O)=O)c3n2)n1`: the “hERG current change (%, negative = inhibition) at 10uM” value was determined as 26.3%.

Consider `CCc1cc(N2CCOCC2)cc2c1[nH]c1ccccc12`, for which the “hERG current change (%, negative = inhibition) at 10uM” value is recorded as 6.57%.

For the compound `Cc1ccc(C(=O)NC(=S)Nc2ccc(CN3CCOCC3)cc2)cc1`, the “hERG current change (%, negative = inhibition) at 10uM” value is reported as 2.56%.

On to `CC(=O)n1c2ccccc2c2c1c1ccccc1n2C`, for which the “hERG current change (%, negative = inhibition) at 10uM” value was -1.59%.

With `COc1cccc(CN2CC(C(=O)N3CCCO3)CCC2=O)c1` (centres unmarked), the “hERG current change (%, negative = inhibition) at 10uM” value stood at 3.91%.

As for `CCOC(=O)CCCNC(=O)CCNC(=O)c1ccc(OC(C)C)cc1`, the “hERG current change (%, negative = inhibition) at 10uM” value turned out to be 7.79%.

With `Cc1cc(C)c(NC(=O)CN(C)C(=O)c2ccc(OCc3ccccc3)cc2)c(C)c1`, the “hERG current change (%, negative = inhibition) at 10uM” value is 14.1%.

For the compound `O=Nc1c(O)n(Cc2cccc(Cl)c2)c2ccccc12`, the “hERG current change (%, negative = inhibition) at 10uM” value was found to be 2.31%.

Regarding `COc1ccc(CN(C(=O)c2snc(C(N)=O)c2N)C(C(=O)NC2CCCC2)c2ccc(OC)c(OC)c2)cc1` (centres unmarked), the “hERG current change (%, negative = inhibition) at 10uM” value is given as -4.19%.

Turning to `Cc1cccc(NC(=O)c2ccc3c(c2)C(=O)N(c2ccccc2C)C3=O)n1`, the “hERG current change (%, negative = inhibition) at 10uM” value is recorded as -10.5%.

As for `COc1ccc(CCC(=O)Nc2nc3ccccc3[nH]2)cc1OC`, the “hERG current change (%, negative = inhibition) at 10uM” value is recorded as -55.7%.

For `Cc1ccc2oc(C(Cl)(Cl)Cl)cc(=O)c2c1`, the “hERG current change (%, negative = inhibition) at 10uM” value stood at 9.24%.

On to `CCCc1cc(=O)oc2cc(OC(=O)CN3C(=O)NC4(CCCC4)C3=O)ccc12`, for which the “hERG current change (%, negative = inhibition) at 10uM” value was -11.6%.

With `S=C(Nc1ccc(Oc2ccccc2)cc1)N1CCN(c2ccccn2)CC1`, the “hERG current change (%, negative = inhibition) at 10uM” value came out at 9.79%.

Consider `COc1ccccc1C(=O)C(O)c1ccccc1OC` (centres unmarked), for which the “hERG current change (%, negative = inhibition) at 10uM” value is reported as -1.94%.

With `CCOc1cc(-c2nc(-c3ccncc3)no2)cc(OCC)c1OCC`, the “hERG current change (%, negative = inhibition) at 10uM” value is listed as 4.14%.

With `CCCCNC(=O)C1CCN(C/C(C)=C/c2ccccc2)CC1.O=C(O)C(=O)O`, the “hERG current change (%, negative = inhibition) at 10uM” value was -63%.

Consider `CCN1C(=O)C(CC(=O)Nc2c(C)cccc2C)Nc2cc(S(=O)(=O)N(C)C)ccc21` (centres unmarked), for which the “hERG current change (%, negative = inhibition) at 10uM” value is listed as -10.9%.

As for `Br.COc1cccc(C(=O)Cn2c(NCCO)nc3ccccc32)c1`, the “hERG current change (%, negative = inhibition) at 10uM” value is on record as 1.97%.

For the compound `CC1(C)CC(=O)/C(=C(/O)Cc2ccccc2)C(=NCCc2ccccc2)C1`, the “hERG current change (%, negative = inhibition) at 10uM” value is reported as -45.2%.

Regarding `Cc1ccccc1-n1c(-c2ccoc2)nc2ccccc2c1=O`, the “hERG current change (%, negative = inhibition) at 10uM” value turned out to be 6.09%.

As to `Cc1ccc(-c2nnc(SCC(=O)Nc3ccc4c(c3)oc3ccccc34)n2C)c(Cl)c1`, the “hERG current change (%, negative = inhibition) at 10uM” value was 1.43%.

Take `O=C(/C=C/c1cccc(Cl)c1)Nc1ccncc1`: the “hERG current change (%, negative = inhibition) at 10uM” value is on record as -17.1%.

In the case of `O=[N+]([O-])c1ccc(O)c(Nc2ncnc3ccccc23)c1`, the “hERG current change (%, negative = inhibition) at 10uM” value came to 13.1%.

As for `NS(=O)(=O)c1ccc(NC(=O)c2cc(Cl)sc2Cl)cc1`, the “hERG current change (%, negative = inhibition) at 10uM” value is -9.92%.

Turning to `Clc1cccc(Cl)c1CSc1nnc(-c2sccc2-n2cccc2)o1`, the “hERG current change (%, negative = inhibition) at 10uM” value was determined as 10.9%.

For the compound `CCc1nnc(NC(=O)CSc2nc(C)nc3c2c(=O)n(C)c(=O)n3C)s1`, the “hERG current change (%, negative = inhibition) at 10uM” value is recorded as 13%.

`O=C(CNC(=O)c1ccc(Cl)cc1Cl)Nc1ccc(F)cc1`: the “hERG current change (%, negative = inhibition) at 10uM” value is reported as -4.01%.

Consider `CCOC(=O)N1CCN(C(=O)c2cc(S(=O)(=O)N3CCc4ccccc43)ccc2OC)CC1`, for which the “hERG current change (%, negative = inhibition) at 10uM” value is -52.1%.

As for `O=C(NCc1ccc(Cl)cc1)C1CCC(CNc2c(N3CCCCC3)c(=O)c2=O)CC1` (centres unmarked), the “hERG current change (%, negative = inhibition) at 10uM” value was determined as 6.29%.

On to `Cc1cc(C(=O)NCc2ccccc2F)c2ccccc2n1`, for which the “hERG current change (%, negative = inhibition) at 10uM” value is 13.2%.

Turning to `COc1ccccc1NC(=O)CN1C(=O)C2(OCCCO2)c2ccccc21`, the “hERG current change (%, negative = inhibition) at 10uM” value stood at 0.384%.

Take `O=C(NCc1nnc2c(C(F)(F)F)cc(Cl)cn12)c1ccco1`: the “hERG current change (%, negative = inhibition) at 10uM” value is listed as -6.67%.

Regarding `N#CC1(NC(=O)Cn2ncc(Cl)c(Cl)c2=O)CCCCC1`, the “hERG current change (%, negative = inhibition) at 10uM” value is on record as 27.6%.

As for `CCOC(=O)c1sc(NC(=O)c2ccc(Cl)s2)cc1C`, the “hERG current change (%, negative = inhibition) at 10uM” value is listed as 3.03%.

With `O=C(COc1ccc2c(C(F)(F)F)cc(=O)oc2c1)Nc1ccc(N2CCOCC2)cc1`, the “hERG current change (%, negative = inhibition) at 10uM” value is given as 0.738%.

For `CCC1(c2ccccc2)NC(=O)N(CC(=O)Nc2cc(S(=O)(=O)N3CCCCCC3)ccc2OC)C1=O` (centres unmarked), the “hERG current change (%, negative = inhibition) at 10uM” value is on record as -26.6%.

`Cc1cc2cc(CNC(=S)NC3CCCCC3)ccc2n1C`: the “hERG current change (%, negative = inhibition) at 10uM” value was 13.8%.

As to `COC(CNC(=O)c1c[nH]c2ccc(S(=O)(=O)N3CCOCC3)cc2c1=O)OC`, the “hERG current change (%, negative = inhibition) at 10uM” value was 10.3%.

Consider `CCN(CC)CCNC1=NCCn2c1cc1cc(OC)ccc12.Cl`, for which the “hERG current change (%, negative = inhibition) at 10uM” value is reported as -66.6%.
